Some of the results follow.

The target in the test is T1, OsWOX13 (Oryza sativa, UniProt Q5QMM3 1-267).
T1 sequence: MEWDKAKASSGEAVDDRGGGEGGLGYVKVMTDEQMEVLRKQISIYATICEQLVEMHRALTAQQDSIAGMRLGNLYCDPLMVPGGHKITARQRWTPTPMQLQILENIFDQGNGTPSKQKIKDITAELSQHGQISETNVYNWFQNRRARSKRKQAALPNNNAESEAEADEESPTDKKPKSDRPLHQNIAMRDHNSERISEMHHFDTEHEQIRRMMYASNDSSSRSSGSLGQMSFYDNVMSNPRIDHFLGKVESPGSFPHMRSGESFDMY
The experiment in a line: protein-binding microarray (RPBM); PBS, 2% BSA, 51.3 ng/ul salmon testes DNA, 50 uM zinc acetate, 200 nM TF, 25 C, 1 h; high values mean tight binding. The settings on record: protein: recombinant; tags: N-terminal polyhistidine and DsRed monomer fusion (pET32a); label: CyDye5-dUTP incorporated in the synthesized complementary strand; 3' TTTTT single-stranded linker to array surface; dsDNA, one strand shown. Summed up:
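Transcription factors were each fused at the N-terminus to a polyhistidine tag plus DsRed and expressed in E. coli BL21-CodonPlus before Ni–NTA purification. Binding to a double-stranded custom Agilent array was carried out with 200 nM protein at 25 °C for 1 h in PBS, 2% BSA, salmon testes DNA and 50 µM zinc acetate. The binding signal is per-feature fluorescence intensity, in arbitrary units, on an Axon 4000B scanner.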
In the case of “GAATAGACTTAATAAATGAACACAAATATATAGATCATTTCGGAGTCACCTAGTGCAG”, the binding signal is 4140 fluorescence intensity (a.u.). On to “TATGAATTTAAACTTAATTTATTTGTTTGCATACTGATGCCGGAGTCACCTAGTGCAG”, for which the binding signal was 17000 fluorescence intensity (a.u.). To “TTAAAATTTAAATTTTGACCATTCAGATAACTAAAAGGAGCGGAGTCACCTAGTGCAG” belongs 15900 fluorescence intensity (a.u.); to “TTTGGTTGGATTGGATTGGATTGGATTGGCTGCTTCCCTGCGGAGTCACCTAGTGCAG”, 25000 fluorescence intensity (a.u.); to “GAATAATTAAGATTTAAAGATATCTTTTGGTGGGTGGGAACGGAGTCACCTAGTGCAG”, 23400 fluorescence intensity (a.u.). To “CGGGTTACAATAAATCACGTCATAGATAGGGCTCAAGAAACGGAGTCACCTAGTGCAG” belongs 3240 fluorescence intensity (a.u.).

Take “GGATATCCGTGATTATTTCATGATTATGACTTCTAGATGGCGGAGTCACCTAGTGCAG”: the binding signal is 19400 fluorescence intensity (a.u.). To “ATGATTTATAATTCCGGCGAATGATCATTTCTCTTTTGCACGGAGTCACCTAGTGCAG” belongs 32600 fluorescence intensity (a.u.); to “ATTGTATAATTTGTACAAGTTAGCAGTTTAATAATGCATTCGGAGTCACCTAGTGCAG”, 4120 fluorescence intensity (a.u.); to “ATACTTTGACCATCAATTTATCCCATGTTATGTTTCCGATCGGAGTCACCTAGTGCAG”, 7180 fluorescence intensity (a.u.).

Turning to “CCTTTTAATTGAAAAGCTCCTTATTGGCTTCCCACCTAAGCGGAGTCACCTAGTGCAG”, the binding signal is 46900 fluorescence intensity (a.u.).

“AGCCTAATTAATCCGTCATTAGCAAATATTTACTGTAGCACGGAGTCACCTAGTGCAG”: the binding signal is 28400 fluorescence intensity (a.u.). Take “ACATGATTAGAGCAACAAGGCTGTGTGACCCACCCGTGGCCGGAGTCACCTAGTGCAG”: the binding signal is 30300 fluorescence intensity (a.u.). For the sequence “TGCACAAAATCACCACCGAATGATTTGAATTCAAGCATGACGGAGTCACCTAGTGCAG”, the binding signal was 10300 fluorescence intensity (a.u.).

With “ACACTGACAGAGCCGACGCCGACGGACACCAAACTTCCCTCGGAGTCACCTAGTGCAG”, the binding signal was 3480 fluorescence intensity (a.u.). In the case of “ATTTAAATCTAATTTTAACTCTCCACCTGGTTGCAGTCGGCGGAGTCACCTAGTGCAG”, the binding signal was 10800 fluorescence intensity (a.u.). Turning to “GCAAATTGAAAATTAAGGATAAACTAGTTTTAGACCATGCCGGAGTCACCTAGTGCAG”, the binding signal is 35200 fluorescence intensity (a.u.).

Regarding “CTGATTAGTGATTTATTTAATTTGAGGAATCATTTTGGCACGGAGTCACCTAGTGCAG”, the binding signal is 64900 fluorescence intensity (a.u.). With “CGCTGCAAATAAATTGGGTCGACTTGTACCGCCGGTTAATCGGAGTCACCTAGTGCAG”, the binding signal was 3450 fluorescence intensity (a.u.). As for “ACAATGACTGCGACTTACTTCGTCCTCCCTCGGCGCGATACGGAGTCACCTAGTGCAG”, the binding signal is 4620 fluorescence intensity (a.u.). The figure for “TGTTAACCAGATTTATTATATTTGAAAATGTCACCTCCAACGGAGTCACCTAGTGCAG” is 8160 fluorescence intensity (a.u.). To “GGAATTACTAGAAATTTTGTGACTGAAATACACTAGATTCCGGAGTCACCTAGTGCAG” belongs 4310 fluorescence intensity (a.u.); to “AAAGCTAATCAGTTGAGTTCATTGGTTGACTGACTCGATACGGAGTCACCTAGTGCAG”, 10900 fluorescence intensity (a.u.). Regarding “TTGTTTGCCAATCAATCACAGACTTCATTGCGTGATCTACCGGAGTCACCTAGTGCAG”, the binding signal was 36300 fluorescence intensity (a.u.). For “TGATTGCAATTAAAATGGAACGAAGTGGAACGAAGGGAGTCGGAGTCACCTAGTGCAG”, the binding signal was 6270 fluorescence intensity (a.u.). The figure for “AACGCTGATAATCAAACGCTACATTACAGACACTAACAGCCGGAGTCACCTAGTGCAG” is 3500 fluorescence intensity (a.u.); for “TCAATGATTAATTTACTAGTGCCATCATGGTCATGAGGAACGGAGTCACCTAGTGCAG” it is 46200 fluorescence intensity (a.u.); for “TGACATAATTAGTCCTCAACCAAACAAACCCTTAATTACCCGGAGTCACCTAGTGCAG” it is 21400 fluorescence intensity (a.u.). To “ATTAATTAGGGGTATTTTGGTTCTTTTATATTCACCTCGACGGAGTCACCTAGTGCAG” belongs 25600 fluorescence intensity (a.u.); to “ACATATGTGATTAGTATCAGTTCATCAGTAGTCTTCCAATCGGAGTCACCTAGTGCAG”, 18500 fluorescence intensity (a.u.); to “GCGGTGACGAGGATAATTTGTCTTCAATAGCTAGACTTTTCGGAGTCACCTAGTGCAG”, 14400 fluorescence intensity (a.u.). The figure for “TAGCACATGATTAATTGAGTATTAATTATTTTAAACTTTACGGAGTCACCTAGTGCAG” is 21300 fluorescence intensity (a.u.); for “ATTCTAGATAAATTGCCACCGGGTCCATATATTAGTTGATCGGAGTCACCTAGTGCAG” it is 3890 fluorescence intensity (a.u.). On to “CTGCTAATCACGTTTTAGTTCGAATTAATGCCATCCACTCCGGAGTCACCTAGTGCAG”, for which the binding signal is 18000 fluorescence intensity (a.u.). Turning to “GTTTAATTTTATTGGGTGCATGTATTGTATTAGTTGAGATCGGAGTCACCTAGTGCAG”, the binding signal is 14000 fluorescence intensity (a.u.). To “GGATGAGACACGCCGACGCGTCATGCCGCCTCAAAGGCCGCGGAGTCACCTAGTGCAG” belongs 3410 fluorescence intensity (a.u.); to “ATGCTTGTAATTGTCAAGGTGTTAACTGTACGCGGCATATCGGAGTCACCTAGTGCAG”, 5350 fluorescence intensity (a.u.). Turning to “CTGATCTTCCTAATTATTTTGTGACAGATGATGGGACGGACGGAGTCACCTAGTGCAG”, the binding signal is 13000 fluorescence intensity (a.u.). As to “GCCCCTCGCTTTTGATTAGTTACGTGCCGGTCCCCACTACCGGAGTCACCTAGTGCAG”, the binding signal was 5220 fluorescence intensity (a.u.). As to “GTATTTAATGAAATTTTATCTGGCCCCATTTTATATTGGACGGAGTCACCTAGTGCAG”, the binding signal is 6970 fluorescence intensity (a.u.). Turning to “ATACAATTAATGCTTTTATAATTTTAGATAATGAATTAAACGGAGTCACCTAGTGCAG”, the binding signal is 10300 fluorescence intensity (a.u.). To “AGTTTTATGATAAATTATATTGTAATGTATCGATTCTGTACGGAGTCACCTAGTGCAG” belongs 6560 fluorescence intensity (a.u.).

The values are drawn from article PMC7819943, “Rice protein-binding microarrays: a tool to detect cis-acting elements near promoter regions in rice”.
